Test results reported in US20210228731A1, “ANTIBODY DRUG CONJUGATES FOR ABLATING HEMATOPOIETIC STEM CELLS” (NOVARTIS AG, priority 2018, published 2021).

T1: mouse cKIT (Mus musculus, UniProt P05532)
T1 construct: 3.125-50 nM of cKIT receptor extracellular domains (ECD) were diluted in a 2-fold series; purchased Sino Biological Inc 50530-M08H
T1 sequence (P05532 25-527 limits assumed): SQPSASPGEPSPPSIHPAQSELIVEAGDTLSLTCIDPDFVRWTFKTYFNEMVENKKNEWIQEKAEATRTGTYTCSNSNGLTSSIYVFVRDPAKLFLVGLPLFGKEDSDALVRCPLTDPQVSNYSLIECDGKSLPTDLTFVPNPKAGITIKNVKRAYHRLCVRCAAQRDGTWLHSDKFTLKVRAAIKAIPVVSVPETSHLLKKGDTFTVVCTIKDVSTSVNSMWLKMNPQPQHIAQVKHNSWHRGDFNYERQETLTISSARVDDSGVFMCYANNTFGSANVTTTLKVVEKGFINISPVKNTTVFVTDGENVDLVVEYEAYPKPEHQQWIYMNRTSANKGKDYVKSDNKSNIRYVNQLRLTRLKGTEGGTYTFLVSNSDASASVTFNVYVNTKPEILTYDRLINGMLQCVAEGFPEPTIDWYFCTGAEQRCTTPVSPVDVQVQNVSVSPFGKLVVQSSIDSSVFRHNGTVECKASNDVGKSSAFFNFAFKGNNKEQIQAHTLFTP


Tests used:
[1] = target: T1, mouse cKIT; assay: Cross reactivity of cKIT antibodies to mouse cKIT; assay type: binding
[2] = tested on: rat cKIT; assay: Cross reactivity of cKIT antibodies to rat cKIT; assay type: binding
[3] = tested on: human peripheral blood HSC-derived mast cells; assay: In vitro human mast cell degranulation assay (beta-hexosaminidase release); assay type: cell-based; details: test agents 0.006-25 nM cross-linked with antibody specific for the Fab portion; absence of SCF
Protocol: Mature mast cells were generated using CD34+ progenitors from mobilized peripheral blood. CD34+ cells were cultured in StemSpan SFEM (StemCell Technologies) supplemented with recombinant human stem cell factor (rhSCF, 50 ng/ml, Gibco), recombinant human interleukin 6 (rhIL-6, 50 ng/ml, Gibco), recombinant human IL-3 (30 ng/ml, Peprotech), GlutaMAX ([…], Gibco), penicillin (100 U/ml, Hyclone) and streptomycin (100 μg/ml, Hyclone). Recombinant hll-3 was added only during the first week of the culture. After the third week, half of the medium was replaced weekly with fresh medium containing rhIL-6 (50 ng/ml) and rhSCF (50 ng/ml). Mature mast cell purity was evaluated by surface staining of high-affinity IgE receptor (FCεRI, eBioscience) and CD117 (BD). […]
The derived mast cells were washed once to remove SCF, and the required amount of cells was incubated overnight in mast cell medium containing rhIL-6 (50 ng/ml) with or without rhSCF (50 ng/ml). […] During this incubation, p-nitro-N-acetyl-pi-D-gluosamine (pNAG, Sigma) buffer was prepared by sonicating 3.5 mg/ml of pNAG in citrate buffer (40 mM citric acid, 20 mM sodium phosphate dibasic, pH 4.5). β-hexosaminidase release was measured by mixing 20 μl of cell supernatant with 40 μl of pNAG solution in a flat-bottom 384-well plate. […] Absorbance was read using a plate reader at λ=405 nm with reference filter at λ=620 nm. […]

Row | Molecule | Reactivity to mouse cKIT [1] | Reactivity to rat cKIT [2] | mast cell degranulation (beta-hexosaminidase release) when cross-linked [3]
1 | Anti-cKIT Ab5: full length anti-cKIT antibody, heavy chain SEQ ID NO: 97, light chain SEQ ID NO: 110 (antibody) heavy: QVQLVQSGAEVKKPGESLKISCKGSGYSFTNYWIAWVRQMPGKGLEWMGIIYPSNSYTLYSPSFQGQVTISADKSISTAYLQWSSLKASDTAMYYCARVPPGGSISYPAFDHWGQGTLVTVSSASTKGPSVFPLAPSSKSTSGGTAALGCLVKDYFPEPVTVSWNSGALTSGVHTFPAVLQSSGLYSLSSVVTVPSSSLGTQTYICNVNHKPSNTKVDKRV[human IgG1 Fc left out] light: DIELTQPPSVSVSPGQTASITCSGDNIGSIYASWYQQKPGQAPVLVIYRDNKRPSGIPERFSGSNSGNTATLTISGTQAEDEADYYCSVTDMEQHSVFGGGTKLTVLGQPKAAPSVTLFPPSSEELQANKATLVCLISDFYPGAVTVAWKADSSPVKAGVETTTPSKQSNNKYAASSYLSLTPEQWKSHRSYSCQVTHEGSTVEKTVAPTECS | Yes | Yes | –
2 | Anti-cKIT Ab4: full length anti-cKIT antibody, heavy chain SEQ ID NO: 71, light chain SEQ ID NO: 84 (antibody) heavy: QVQLQQSGPGLVKPSQTLSLTCAISGDSVSTNSAAWNWIRQSPSRGLEWLGRIYYRSQWLNDYAVSVKSRITINPDTSKNQFSLQLNSVTPEDTAVYYCARQLTYPYTVYHKALDVWGQGTLVTVSSASTKGPSVFPLAPSSKSTSGGTAALGCLVKDYFPEPVTVSWNSGALTSGVHTFPAVLQSSGLYSLSSVVTVPSSSLGTQTYICNVNHKPSNTKVDKRV[human IgG1 Fc left out] light: DIELTQPPSVSVSPGQTASITCSGDNLGDQYVSWYQQKPGQAPVLVIYDDTDRPSGIPERFSGSNSGNTATLTISGTQAEDEADYYCQSTDSKSVVFGGGTKLTVLGQPKAAPSVTLFPPSSEELQANKATLVCLISDFYPGAVTVAWKADSSPVKAGVETTTPSKQSNNKYAASSYLSLTPEQWKSHRSYSCQVTHEGSTVEKTVAPTECS | Yes | Yes | caused mast cell degranulation when cross-linked
